Measured values: the supplement of paper PMC8728848
Some of the results follow.

Key:
Assay in all cases: glycan array binding signal (z-score within array); higher = stronger binding
Conditions in all cases: glycan notation: IUPAC condensed, linker removed
[1] = target: GlcNAc(b1-2)Man(a1-3)[GlcNAc(b1-2)Man(a1-6)]Man(b1-4)GlcNAc(b1-4)GlcNAc
In short: (§1)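 The Consortium for Functional Glycomics database supplied 3228 glycan arrays, of which those lacking an available protein sequence were dropped. The binding signal, a within-array Z-score, was averaged across arrays of the same protein sequence and across linkers. Negative scores can be read as non-binding.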

[2] = target: GlcNAc(b1-2)Man(a1-3)[GlcNAc(b1-2)Man(a1-6)]Man(b1-4)GlcNAc(b1-4)[Fuc(a1-6)]GlcNAc
In short: as §1

[3] = target: GlcNAc(b1-2)Man(a1-3)[GlcNAc(b1-4)][GlcNAc(b1-2)Man(a1-6)]Man(b1-4)GlcNAc(b1-4)GlcNAc
In short: as §1

[4] = target: GlcNAc(b1-2)Man(a1-3)[GlcNAc(b1-4)][GlcNAc(b1-2)Man(a1-6)]Man(b1-4)GlcNAc(b1-4)[Fuc(a1-6)]GlcNAc
In short: as §1

[5] = target: GlcNAc(b1-2)[GlcNAc(b1-4)]Man(a1-3)[GlcNAc(b1-2)Man(a1-6)]Man(b1-4)GlcNAc(b1-4)GlcNAc
In short: as §1

[6] = target: GlcNAc(b1-2)[GlcNAc(b1-4)]Man(a1-3)[GlcNAc(b1-4)][GlcNAc(b1-2)Man(a1-6)]Man(b1-4)GlcNAc(b1-4)GlcNAc
In short: as §1

[7] = target: GlcNAc(b1-2)[GlcNAc(b1-4)]Man(a1-3)[GlcNAc(b1-4)][GlcNAc(b1-2)[GlcNAc(b1-6)]Man(a1-6)]Man(b1-4)GlcNAc(b1-4)GlcNAc
In short: as §1

[8] = target: GlcNAc(b1-2)[GlcNAc(b1-4)]Man(a1-3)[GlcNAc(b1-4)][GlcNAc(b1-2)[GlcNAc(b1-6)]Man(a1-6)]Man(b1-4)GlcNAc(b1-4)[Fuc(a1-6)]GlcNAc
In short: as §1

[9] = target: GlcNAc(b1-2)[GlcNAc(b1-6)]Man(a1-6)[GlcNAc(b1-2)Man(a1-3)]Man(b1-4)GlcNAc(b1-4)GlcNAc
In short: as §1

[10] = target: GlcNAc(b1-2)[GlcNAc(b1-6)]Man(a1-6)[GlcNAc(b1-2)Man(a1-3)]Man(b1-4)GlcNAc(b1-4)[Fuc(a1-6)]GlcNAc
In short: as §1

[11] = target: GlcNAc(b1-2)[GlcNAc(b1-6)]Man(a1-6)[GlcNAc(b1-4)][GlcNAc(b1-2)Man(a1-3)]Man(b1-4)GlcNAc(b1-4)GlcNAc
In short: as §1

[12] = target: GlcNAc(b1-3)Fuc
In short: as §1

[13] = target: GlcNAc(b1-3)Gal
In short: as §1

[14] = target: GlcNAc(b1-3)Gal(b1-3)GalNAc
In short: as §1

[15] = target: GlcNAc(b1-3)Gal(b1-4)Glc
In short: as §1

[16] = target: GlcNAc(b1-3)Gal(b1-4)GlcNAc
In short: as §1

[17] = target: GlcNAc(b1-3)Gal(b1-4)GlcNAc(b1-2)Man(a1-3)[GlcNAc(b1-3)Gal(b1-4)GlcNAc(b1-2)Man(a1-6)]Man(b1-4)GlcNAc(b1-4)GlcNAc
In short: as §1

[18] = target: GlcNAc(b1-3)Gal(b1-4)GlcNAc(b1-2)Man(a1-3)[GlcNAc(b1-3)Gal(b1-4)GlcNAc(b1-2)Man(a1-6)]Man(b1-4)GlcNAc(b1-4)[Fuc(a1-6)]GlcNAc
In short: as §1

[19] = target: GlcNAc(b1-3)Gal(b1-4)GlcNAc(b1-2)[GlcNAc(b1-3)Gal(b1-4)GlcNAc(b1-6)]Man(a1-6)[GlcNAc(b1-3)Gal(b1-4)GlcNAc(b1-2)Man(a1-3)]Man(b1-4)GlcNAc(b1-4)GlcNAc
In short: as §1

[20] = target: GlcNAc(b1-3)Gal(b1-4)GlcNAc(b1-3)Gal(b1-4)GlcNAc
In short: as §1

[21] = target: GlcNAc(b1-3)Gal(b1-4)GlcNAc(b1-3)Gal(b1-4)GlcNAc(b1-2)Man(a1-3)[GlcNAc(b1-3)Gal(b1-4)GlcNAc(b1-3)Gal(b1-4)GlcNAc(b1-2)Man(a1-6)]Man(b1-4)GlcNAc(b1-4)GlcNAc
In short: as §1

[22] = target: GlcNAc(b1-3)Gal(b1-4)GlcNAc(b1-3)Gal(b1-4)GlcNAc(b1-2)Man(a1-3)[GlcNAc(b1-3)Gal(b1-4)GlcNAc(b1-3)Gal(b1-4)GlcNAc(b1-2)Man(a1-6)]Man(b1-4)GlcNAc(b1-4)[Fuc(a1-6)]GlcNAc
In short: as §1

[23] = target: GlcNAc(b1-3)Gal(b1-4)GlcNAc(b1-3)Gal(b1-4)GlcNAc(b1-2)[GlcNAc(b1-3)Gal(b1-4)GlcNAc(b1-3)Gal(b1-4)GlcNAc(b1-6)]Man(a1-6)[GlcNAc(b1-3)Gal(b1-4)GlcNAc(b1-3)Gal(b1-4)GlcNAc(b1-2)Man(a1-3)]Man(b1-4)GlcNAc(b1-4)[Fuc(a1-6)]GlcNAc
In short: as §1

[24] = target: GlcNAc(b1-3)Gal(b1-4)GlcNAc(b1-3)Gal(b1-4)GlcNAc(b1-3)Gal(b1-4)GlcNAc(b1-2)Man(a1-3)[GlcNAc(b1-3)Gal(b1-4)GlcNAc(b1-3)Gal(b1-4)GlcNAc(b1-3)Gal(b1-4)GlcNAc(b1-2)Man(a1-6)]Man(b1-4)GlcNAc(b1-4)GlcNAc
In short: as §1

[25] = target: GlcNAc(b1-3)Gal(b1-4)GlcNAc(b1-3)Gal(b1-4)GlcNAc(b1-3)Gal(b1-4)GlcNAc(b1-2)Man(a1-3)[GlcNAc(b1-3)Gal(b1-4)GlcNAc(b1-3)Gal(b1-4)GlcNAc(b1-3)Gal(b1-4)GlcNAc(b1-2)Man(a1-6)]Man(b1-4)GlcNAc(b1-4)[Fuc(a1-6)]GlcNAc
In short: as §1

[26] = target: GlcNAc(b1-3)Gal(b1-4)GlcNAc(b1-3)Gal(b1-4)GlcNAc(b1-3)Gal(b1-4)GlcNAc(b1-2)[GlcNAc(b1-3)Gal(b1-4)GlcNAc(b1-3)Gal(b1-4)GlcNAc(b1-3)Gal(b1-4)GlcNAc(b1-6)]Man(a1-6)[GlcNAc(b1-3)Gal(b1-4)GlcNAc(b1-3)Gal(b1-4)GlcNAc(b1-3)Gal(b1-4)GlcNAc(b1-2)Man(a1-3)]Man(b1-4)GlcNAc(b1-4)[Fuc(a1-6)]GlcNAc
In short: as §1

[27] = target: GlcNAc(b1-3)Gal(b1-4)GlcNAc(b1-3)Gal(b1-4)GlcNAc(b1-3)Gal(b1-4)GlcNAc(b1-3)Gal(b1-4)GlcNAc(b1-2)Man(a1-3)[GlcNAc(b1-3)Gal(b1-4)GlcNAc(b1-3)Gal(b1-4)GlcNAc(b1-3)Gal(b1-4)GlcNAc(b1-3)Gal(b1-4)GlcNAc(b1-2)Man(a1-6)]Man(b1-4)GlcNAc(b1-4)GlcNAc
In short: as §1

[28] = target: GlcNAc(b1-3)Gal(b1-4)GlcNAc(b1-3)Gal(b1-4)GlcNAc(b1-3)Gal(b1-4)GlcNAc(b1-3)Gal(b1-4)GlcNAc(b1-2)Man(a1-3)[GlcNAc(b1-3)Gal(b1-4)GlcNAc(b1-3)Gal(b1-4)GlcNAc(b1-3)Gal(b1-4)GlcNAc(b1-3)Gal(b1-4)GlcNAc(b1-2)Man(a1-6)]Man(b1-4)GlcNAc(b1-4)[Fuc(a1-6)]GlcNAc
In short: as §1

[29] = target: GlcNAc(b1-3)Gal(b1-4)GlcNAc(b1-3)Gal(b1-4)GlcNAc(b1-3)Gal(b1-4)GlcNAc(b1-3)Gal(b1-4)GlcNAc(b1-2)[GlcNAc(b1-3)Gal(b1-4)GlcNAc(b1-3)Gal(b1-4)GlcNAc(b1-3)Gal(b1-4)GlcNAc(b1-3)Gal(b1-4)GlcNAc(b1-6)]Man(a1-6)[GlcNAc(b1-3)Gal(b1-4)GlcNAc(b1-3)Gal(b1-4)GlcNAc(b1-3)Gal(b1-4)GlcNAc(b1-3)Gal(b1-4)GlcNAc(b1-2)Man(a1-3)]Man(b1-4)GlcNAc(b1-4)[Fuc(a1-6)]GlcNAc
In short: as §1

[30] = target: GlcNAc(b1-3)Gal(b1-4)GlcNAc(b1-3)Gal(b1-4)GlcNAc(b1-3)GalNAc
In short: as §1

B1: Pbx2 (Cryptococcus neoformans) (protein)
chain: AVSPLPSSTELVFYSQKRRRRRICSTATGSLSTPDPTRMTSDPYKRVGMRFSSVPRLLITFLSLLLLVSAAPPCVRFADYDSINQMFIDGGPGTKVLLCPNRLYRLSGPIIFTAADQEIATYGYPTGSERAVLRVEGRNTATAIQGDCRRCARVSVKNLVVDGNRKKLGRMRDFQLATGLVVLGGNEGQSIQNSWIKNPRGFTAIHIREGDKLQCSGARVEKNEIGPVGEEYDPEKDGDDPEMSPLGRPLADGVSIACRDSFIRDNTFRDNTDAAIVVYCSPGTLIHANHIFAQSLSAMAGILMVDSTPFNGDYTGTVVRSNIIDAVSRTIRVGIGIGPTVWSDDTETILTGGSVIGNGLKGRYMGYGIAAAGLKQWTIKDNWDEAKHEGRKSARCFDEPVNPDPIGLLYNRPTMEDCTVQSGFADHDFQYLVCIDGLYDKTNPPKHDPAPLAHDPSPTNAQEDNTVQQDGGDSKSKSIEQPREASDIEAEPSVEKMFSTGSEMMDDVLEHSHQRMHEVIDHLSRRIDILGAASAGKGSGDSKISEVLDPAMSSHLEKLQRKIEHLEFSLRSQIETAIQLRSAIQGWDQEMALVTDWEYDILLDVRHKLELSSYPHDQPLDPRLMRGQSYLNNEAVLVDDHSHPSLEGENLRAMSDRARLNANEEA
glycan array binding signal (z-score) [1]: -0.115
glycan array binding signal (z-score) [2]: -0.293
glycan array binding signal (z-score) [3]: 0.091
glycan array binding signal (z-score) [4]: -0.242
glycan array binding signal (z-score) [5]: -0.045
glycan array binding signal (z-score) [6]: -0.524
glycan array binding signal (z-score) [7]: 0.057
glycan array binding signal (z-score) [8]: -0.396
glycan array binding signal (z-score) [9]: -0.473
glycan array binding signal (z-score) [10]: -0.377
glycan array binding signal (z-score) [11]: -0.434
glycan array binding signal (z-score) [12]: -0.711
glycan array binding signal (z-score) [13]: -0.502
glycan array binding signal (z-score) [14]: -0.436
glycan array binding signal (z-score) [15]: -0.447
glycan array binding signal (z-score) [16]: -0.435
glycan array binding signal (z-score) [17]: -0.424
glycan array binding signal (z-score) [18]: 0.05
glycan array binding signal (z-score) [19]: 2.16
glycan array binding signal (z-score) [20]: -0.336
glycan array binding signal (z-score) [21]: 3.17
glycan array binding signal (z-score) [22]: -0.196
glycan array binding signal (z-score) [23]: 1.33
glycan array binding signal (z-score) [24]: -0.049
glycan array binding signal (z-score) [25]: -0.032
glycan array binding signal (z-score) [26]: 0.144
glycan array binding signal (z-score) [27]: -0.241
glycan array binding signal (z-score) [28]: -0.662
glycan array binding signal (z-score) [29]: -0.071
glycan array binding signal (z-score) [30]: -0.014
